T1: intermediate-affinity hIL-2 receptor (IL-2Rβγ) on TF1+IL-2Rβ cells (human, UniProt P14784 27-551; P31785 23-369)
T1 sequence 1: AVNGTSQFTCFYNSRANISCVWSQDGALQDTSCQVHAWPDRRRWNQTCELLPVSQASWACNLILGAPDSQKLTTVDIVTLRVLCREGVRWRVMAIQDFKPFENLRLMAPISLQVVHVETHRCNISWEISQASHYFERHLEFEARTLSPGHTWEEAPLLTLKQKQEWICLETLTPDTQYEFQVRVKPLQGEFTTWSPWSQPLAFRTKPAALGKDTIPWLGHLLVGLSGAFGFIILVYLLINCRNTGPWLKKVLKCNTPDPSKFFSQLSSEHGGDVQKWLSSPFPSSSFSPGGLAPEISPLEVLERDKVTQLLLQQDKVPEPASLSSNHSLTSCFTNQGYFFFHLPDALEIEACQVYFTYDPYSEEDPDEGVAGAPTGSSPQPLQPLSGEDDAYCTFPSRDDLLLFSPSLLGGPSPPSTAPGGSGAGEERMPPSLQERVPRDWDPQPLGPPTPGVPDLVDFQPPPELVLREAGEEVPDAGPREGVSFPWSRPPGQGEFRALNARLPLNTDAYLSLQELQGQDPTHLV
T1 sequence 2: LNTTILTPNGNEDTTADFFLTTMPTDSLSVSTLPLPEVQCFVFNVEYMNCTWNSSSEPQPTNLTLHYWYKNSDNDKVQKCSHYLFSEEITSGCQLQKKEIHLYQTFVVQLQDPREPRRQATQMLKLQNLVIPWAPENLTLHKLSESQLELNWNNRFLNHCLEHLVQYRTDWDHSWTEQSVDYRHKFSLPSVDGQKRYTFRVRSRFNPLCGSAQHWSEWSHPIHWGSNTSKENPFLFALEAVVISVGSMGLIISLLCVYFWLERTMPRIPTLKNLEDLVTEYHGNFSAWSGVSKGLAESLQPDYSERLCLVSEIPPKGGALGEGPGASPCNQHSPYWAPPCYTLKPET

T2: high-affinity hIL-2 receptor (IL-2Rαβγ) on NK-92 cells (human, UniProt P01589 22-272; P14784 27-551; P31785 23-369)
T2 sequence 1: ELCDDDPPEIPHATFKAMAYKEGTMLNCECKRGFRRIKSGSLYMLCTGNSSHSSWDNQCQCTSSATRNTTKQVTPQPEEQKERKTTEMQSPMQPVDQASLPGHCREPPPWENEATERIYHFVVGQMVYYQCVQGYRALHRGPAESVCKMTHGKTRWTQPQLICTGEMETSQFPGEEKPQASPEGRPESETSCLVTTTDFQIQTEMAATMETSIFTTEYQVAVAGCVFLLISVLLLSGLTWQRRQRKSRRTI
T2 sequence 2: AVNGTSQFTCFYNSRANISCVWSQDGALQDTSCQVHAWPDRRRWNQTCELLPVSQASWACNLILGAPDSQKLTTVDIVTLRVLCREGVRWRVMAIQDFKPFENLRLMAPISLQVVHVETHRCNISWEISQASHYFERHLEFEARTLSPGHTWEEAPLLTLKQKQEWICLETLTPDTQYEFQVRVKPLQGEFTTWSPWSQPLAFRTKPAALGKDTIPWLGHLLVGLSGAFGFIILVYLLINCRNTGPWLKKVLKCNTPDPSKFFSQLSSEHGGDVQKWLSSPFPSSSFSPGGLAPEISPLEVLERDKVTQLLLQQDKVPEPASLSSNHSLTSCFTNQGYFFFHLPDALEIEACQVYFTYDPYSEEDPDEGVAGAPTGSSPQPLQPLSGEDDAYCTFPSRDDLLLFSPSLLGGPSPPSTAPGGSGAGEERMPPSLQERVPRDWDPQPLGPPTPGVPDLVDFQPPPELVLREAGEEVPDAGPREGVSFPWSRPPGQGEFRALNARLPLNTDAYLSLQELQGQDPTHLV
T2 sequence 3: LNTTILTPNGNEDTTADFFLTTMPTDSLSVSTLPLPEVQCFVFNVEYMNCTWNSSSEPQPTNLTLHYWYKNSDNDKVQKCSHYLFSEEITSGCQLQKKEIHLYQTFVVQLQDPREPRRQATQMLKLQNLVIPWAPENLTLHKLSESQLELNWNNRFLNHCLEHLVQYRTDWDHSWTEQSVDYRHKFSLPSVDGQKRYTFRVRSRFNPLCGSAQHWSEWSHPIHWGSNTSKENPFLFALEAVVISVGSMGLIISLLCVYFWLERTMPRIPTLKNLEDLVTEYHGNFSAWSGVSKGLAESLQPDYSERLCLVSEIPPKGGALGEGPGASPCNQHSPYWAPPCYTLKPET


Tests used:
Assay in all cases: cell-based or functional assay
[1] = molecular target: T1, intermediate-affinity hIL-2 receptor …
[2] = molecular target: T1, intermediate-affinity hIL-2 receptor …; remark: listed apart in the source
[3] = molecular target: T2, high-affinity hIL-2 receptor (IL-2Rαβγ) …

Binder	Fold decrease from rhIL-2 (TF1 + IL-2Rβ + hPD-1) [1]	Agonistic Activity (TF1 + IL-2Rβ) [2]	Fold change from rhIL-2 (TF1 + IL-2Rβ) [2]	Fold change from rhIL-2 (NK-92) [3]
1D5-hIgG4-df-hIL-2 (D20A/R38E) (other) heavy: EVQLLESGGGLVQPGGSLRLSCVGSGFNFKDYCMTWVRQAPGKGLEWVSAIVYSGGSTYYADSVKGRFTISRDNSKNTLYLQMNSLRAEDTAVYYCAKYTRGSYFYDAMDVWGQGTTVTVSSASTKGPSVFPLAPCSRSTSESTAALGCLVKDYFPEPVTVSWNSGALTSGVHTFPAVLQSSGLYSLSSVVTVPSSSLGTKTYTCNVDHKPSNTKVDKRV[not shown - about 350 residues with a human IgG4 Fc] light: EIVLTQSPGTLSLSPGERATLSCRASQSIGRSFLAWYQQKPGQAPRLLIYDASTRATDIPDRFSGSGSGTEFTLTISSLQSEDFAVYYCQQYYDWPPLTFGGGTKVEIKRTVAAPSVFIFPPSDEQLKSGTASVVCLLNNFYPREAKVQWKVDNALQSGNSQESVTEQDSKDSTYSLSSTLTLSKADYEKHKVYACEVTHQGLSSPVTKSFNRGEC	~1 fold	80%	~7420 fold	
1D5-hIgG4-LAGA-df-hIL-2 (T3A/D20A/R38E/C125A) (other) heavy: EVQLLESGGGLVQPGGSLRLSCVGSGFNFKDYCMTWVRQAPGKGLEWVSAIVYSGGSTYYADSVKGRFTISRDNSKNTLYLQMNSLRAEDTAVYYCAKYTRGSYFYDAMDVWGQGTTVTVSSASTKGPSVFPLAPCSRSTSESTAALGCLVKDYFPEPVTVSWNSGALTSGVHTFPAVLQSSGLYSLSSVVTVPSSSLGTKTYTCNVDHKPSNTKVDKRV[not shown - human IgG4 Fc with S228P L235A G237A (EU numbers)]APASSSTKKTQLQLEHLLLALQMILNGINNYKNPKLTEMLTFKFYMPKKATELKHLQCLEEELKPLEEVLNLAQSKNFHLRPRDLISNINVIVLELKGSETTFMCEYADETATIVEFLNRWITFAQSIISTLT light: EIVLTQSPGTLSLSPGERATLSCRASQSIGRSFLAWYQQKPGQAPRLLIYDASTRATDIPDRFSGSGSGTEFTLTISSLQSEDFAVYYCQQYYDWPPLTFGGGTKVEIKRTVAAPSVFIFPPSDEQLKSGTASVVCLLNNFYPREAKVQWKVDNALQSGNSQESVTEQDSKDSTYSLSSTLTLSKADYEKHKVYACEVTHQGLSSPVTKSFNRGEC		20%		
A2-hIgG4-df-hIL-2 (D20A/R38E) (other) heavy: DVQLVESGGGLVQPGGSLRLSCAASGFTFDISAMSWVRQAPGKGLEWVSTISGSAYSTYYADSVKGRFTISRDNSKSTLYLQMNSLRAEDTAVYYCAREIFSDYWGLGTLVTVSSASTKGPSVFPLAPCSRSTSESTAALGCLVKDYFPEPVTVSWNSGALTSGVHTFPAVLQSSGLYSLSSVVTVPSSSLGTKTYTCNVDHKPSNTKVDKRV[not shown - about 350 residues with a human IgG4 Fc and changes] light: QSVLTQPPSASGTPGQRVTISCSGSTSNIGRESVYWYQQLPGTAPKLLIYSNVQRPSGAPNRFSGSKSGTSASLAISGLQSEDEADYYCGTWDDSLNGWVFGGGTKLTVLGQPKAAPSVTLFPPSSEELQANKATLVCLISDFYPGAVTVAWKADSSPVKAGVETTTPSKQSNNKYAASSYLSLTPEQWKSHRSYSCQVTHEGSTVEKTVAPTECS			> 10000 fold	~811 fold
A2-hIgG4-df-hIL-2 (R38E/D84K) (other) heavy: DVQLVESGGGLVQPGGSLRLSCAASGFTFDISAMSWVRQAPGKGLEWVSTISGSAYSTYYADSVKGRFTISRDNSKSTLYLQMNSLRAEDTAVYYCAREIFSDYWGLGTLVTVSSASTKGPSVFPLAPCSRSTSESTAALGCLVKDYFPEPVTVSWNSGALTSGVHTFPAVLQSSGLYSLSSVVTVPSSSLGTKTYTCNVDHKPSNTKVDKRV[not shown - about 350 residues with a human IgG4 Fc and changes] light: QSVLTQPPSASGTPGQRVTISCSGSTSNIGRESVYWYQQLPGTAPKLLIYSNVQRPSGAPNRFSGSKSGTSASLAISGLQSEDEADYYCGTWDDSLNGWVFGGGTKLTVLGQPKAAPSVTLFPPSSEELQANKATLVCLISDFYPGAVTVAWKADSSPVKAGVETTTPSKQSNNKYAASSYLSLTPEQWKSHRSYSCQVTHEGSTVEKTVAPTECS		90%		
A2-hIgG4-df-hIL-2 (D20S/R38E) (other) heavy: DVQLVESGGGLVQPGGSLRLSCAASGFTFDISAMSWVRQAPGKGLEWVSTISGSAYSTYYADSVKGRFTISRDNSKSTLYLQMNSLRAEDTAVYYCAREIFSDYWGLGTLVTVSSASTKGPSVFPLAPCSRSTSESTAALGCLVKDYFPEPVTVSWNSGALTSGVHTFPAVLQSSGLYSLSSVVTVPSSSLGTKTYTCNVDHKPSNTKVDKRV[not shown - about 350 residues with a human IgG4 Fc and changes] light: QSVLTQPPSASGTPGQRVTISCSGSTSNIGRESVYWYQQLPGTAPKLLIYSNVQRPSGAPNRFSGSKSGTSASLAISGLQSEDEADYYCGTWDDSLNGWVFGGGTKLTVLGQPKAAPSVTLFPPSSEELQANKATLVCLISDFYPGAVTVAWKADSSPVKAGVETTTPSKQSNNKYAASSYLSLTPEQWKSHRSYSCQVTHEGSTVEKTVAPTECS	~0 fold		~7040 fold	
OMC.1.B6-hIgG4-L6-hIL-2 (D20A/R38E) (other) heavy: EVQLLESGGGLVQPGGSLRLSCAASGFTFSSNYMSWVRQAPGKGLEWVSAISSSGGTIFYADSVKGRFTISRDNSKNTLYLQMNSLRAEDTAVYYCAKHKWNAVYYDGMDVWGQGTTVTVSSASTKGPSVFPLAPCSRSTSESTAALGCLVKDYFPEPVTVSWNSGALTSGVHTFPAVLQSSGLYSLSSVVTVPSSSLGTKTYTCNVDHKPSNTKVDKRV[not shown - about 350 residues with a human IgG4 Fc] light: QSVLTQPPSASGTPGQRVTISCSGSNSNIGRNLVNWYQQLPGTAPKLLIYTIDQRPSGVPDRFSGSKSGTSASLVISGLQSEDEADYYCAAWDGSLNAWVFGGGTKLTVLGQPKAAPSVTLFPPSSEELQANKATLVCLISDFYPGAVTVAWKADSSPVKAGVETTTPSKQSNNKYAASSYLSLTPEQWKSHRSYSCQVTHEGSTVEKTVAPTECS	~0 fold	70%	~8460 fold	
OMC.1.D6-hIgG4-L6-hIL-2 (D20A/R38E) (other) heavy: EVQLLESGGGLVQPGGSLRLSCAASGFTFSDYYMSWVRQAPGKGLEWVSAISSSGGTIFYADSVKGRFIISRDNSKNTLYLQMNSLRAEDTAVYYCAKHKWNDVYYDAMDVWGQGTTVTVSSASTKGPSVFPLAPCSRSTSESTAALGCLVKDYFPEPVTVSWNSGALTSGVHTFPAVLQSSGLYSLSSVVTVPSSSLGTKTYTCNVDHKPSNTKVDKRV[not shown - about 350 residues with a human IgG4 Fc] light: QSVLTQPPSASGTPGQRVTISCSGSNSNIGRNLVNWYQQLPGTAPKLLIYTVDQRPSGVPDRFSGSKSGTSASLAISGLASEDEADYYCAAWDSSLNSWVFGGGTKLTVLGQPKAAPSVTLFPPSSEELQANKATLVCLISDFYPGAVTVAWKADSSPVKAGVETTTPSKQSNNKYAASSYLSLTPEQWKSHRSYSCQVTHEGSTVEKTVAPTECS	~0 fold	70%	> 10000 fold	

From patent publication US20240076343A1 (CEPHALON, published 2024)
